Reference: PubChem BioAssay AID504832 (National Center for Advancing Translational Sciences (NCATS), 2011)
The campaign covered roughly 310,000 compounds. About 18,000 (5.8%) were called active. The shares of active, inactive and inconclusive entries below differ from those in the screen. The call rests on the fitted dose curve; in most records, active means well fitted inhibition curve with a large enough effect; inconclusive means small, poorly fitted or top-dose-only effect, or another doubt; inactive means no such curve, though single readings can be large or run the other way. No potency is given beside an inconclusive call; the fits are too rough.
Potency means the concentration at half of the fitted maximal effect; tags describe the fitted curve by direction and shape.

Test: Primary qHTS for delayed death inhibitors of the malarial parasite plastid, 48 hour incubation
Conditions: P. falciparum luciferase growth in erythrocytes; series mostly up to 28.7 µM
In short: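 In quantitative HTS format, infected erythrocytes bearing luciferase-reporter parasites were treated for a single generation at 37 C. Luminescence after adding detection reagent served as the growth measure.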
With `COc1cc(C(=O)Nc2nc(-c3cccs3)cs2)cc(OC)c1OC` the Potency was active: 11.7 µM. With `CCCCOc1ccc(C(=O)OCC(=O)N2CCOCC2)cc1` the Potency was “inactive”. With `CCOc1ccc(C(=O)Nc2ccc(S(=O)(=O)N3C[C@@H]4C[C@@H](C3)c3cccc(=O)n3C4)cc2)cc1` the Potency was inconclusive [inhibitor, partial curve]. With `CN(C)C(Cc1ccc(Cl)cc1)C(=O)c1ccccc1` (configuration not stated) the Potency was “inactive”. With `N#C/C(N=Nc1ccccc1O)=N\Nc1ccccc1O` the Potency was inconclusive [inhibitor, single point]. For `COc1ccc(Cl)cc1C(=O)NCc1ccc2c(c1)OCO2`, the Potency was inconclusive [inhibitor, full curve, poor fit]. With `Cc1cccc(-n2c(CNC(=O)Cc3ccccc3)n[nH]c2=S)c1` the Potency was inconclusive [inhibitor, full curve, poor fit]. In the case of `CCOC(=O)c1ccccc1NC(=O)CSc1nnc(COc2ccccc2C)n1C`, the Potency is reported as active: 13.1 µM. In the case of `Cc1nc2c(-c3ccc(Cl)cc3)c(C)[nH]n2c(=O)c1Cc1ccccc1`, the Potency is reported as inconclusive [inhibitor, partial curve]. With `CCOc1ccccc1-c1nc(C(N)=O)c2[nH]c(=O)n(-c3cccc(C)c3)c2n1` the Potency was inconclusive [inhibitor, single point]. With `Cc1nn(C)cc1C(C(=O)NC1CCCCC1)N(C(=O)Cc1cccs1)c1ccc(C(C)C)cc1` (configuration not stated) the Potency was inconclusive [inhibitor, partial curve]. In the case of `Cc1ccc(C(=O)Nc2cc(Cl)ccc2OC(=O)c2ccc(C)cc2)cc1`, the Potency is reported as inconclusive [inhibitor, partial curve, poor fit]. For `Cc1ccc(F)c(NC(=O)c2ccc(Cn3cc(Cl)cn3)cc2)c1`, the Potency was inconclusive [inhibitor, single point]. With `Cc1cccc(NC(=O)C(Cc2ccccc2)n2cccc2)c1` (configuration not stated) the Potency was inconclusive [inhibitor, single point]. For `OC1(CC#CCN2CCCCC2)c2ccccc2-c2ccccc21`, the Potency was inconclusive [inhibitor, single point]. In the case of `Cc1ccc(C2C(C#N)=C(N)Oc3c2sc2ccccc32)o1` (configuration not stated), the Potency is reported as inconclusive [inhibitor, single point]. With `CCN(CC)c1ccc(/C=N/NC(=O)c2ccoc2C)cc1` the Potency was “inactive”. In the case of `CC1=C(CC(=O)c2ccc(Cl)cc2)C(=O)c2ccccc2C1=O`, the Potency is reported as active: 0.165 µM. For `O=C(NCCc1ccccc1)C1CC(=O)N(c2ccc3c(c2)OCCO3)C1` (configuration not stated), the Potency was inconclusive [inhibitor, partial curve, poor fit]. For `CCOc1ccc(C(=O)N(CC)CC(=O)Nc2ccc3c(c2)OCCO3)cc1OCC`, the Potency was inconclusive [inhibitor, partial curve, poor fit]. In the case of `COc1ccc(/C=C/C(=O)N(C)Cc2cccs2)cc1S(=O)(=O)N1CCOCC1`, the Potency is reported as inconclusive [inhibitor, partial curve]. With `CC(OC(=O)C1=COCCO1)C(=O)c1ccc(C(C)(C)C)cc1` (configuration not stated) the Potency was inconclusive [inhibitor, partial curve, poor fit]. With `Cc1ccc(-c2cc(C(=O)Nc3ccc(S(=O)(=O)Nc4ncccn4)cc3)[nH]n2)c(O)c1C` the Potency was inconclusive [inhibitor, single point]. With `CCN1CCN(C(=O)c2cc3c(=O)n(C)c4ccccc4c3n2C)CC1` the Potency was inconclusive [inhibitor, partial curve, poor fit]. With `Clc1ccc(Cn2ncc3c(N4CCCCC4)ncnc32)cc1` the Potency was inconclusive [inhibitor, partial curve]. With `O=C(Cn1c(=O)c2c(ncn2Cc2ccccc2)n(Cc2ccccc2)c1=O)NC1CC1` the Potency was inconclusive [inhibitor, full curve]. With `CCN(Cc1ccccc1)S(=O)(=O)c1ccc(C(=O)N(CCCN(C)C)c2nc3cc4c(cc3s2)OCCO4)cc1` the Potency was inconclusive [inhibitor, single point]. In the case of `Cc1nc(SCC(=O)NC(C)(C#N)C2CC2)c2c(-c3cccs3)csc2n1` (configuration not stated), the Potency is reported as “inactive”. In the case of `CC(=O)N1C=Cc2c(c(C)c3c([nH]c4ccccc43)c2C)C1`, the Potency is reported as active: 1.85 µM. With `O=C(CN1CCN(C(=O)c2ccccc2)CC1)Nc1ncc(Br)cc1Br` the Potency was “inactive”. With `Cc1ccc(NC(=O)c2cc(C(C)(C)C)nn2Cc2ccccc2)cc1` the Potency was active: 8.28 µM. In the case of `Brc1ccc(CSc2nnc(-c3cnccn3)n2Cc2ccco2)cc1`, the Potency is reported as inconclusive [inhibitor, partial curve]. In the case of `CC1(C)OC2C(CO)OC(n3cnc4c(=S)nc[nH]c43)C2O1` (configuration not stated), the Potency is reported as “inactive”. In the case of `O=C(NCc1ccccc1F)c1cccc(S(=O)(=O)NCc2ccccc2)c1`, the Potency is reported as inconclusive [inhibitor, single point]. For `COc1ccccc1N(Cc1ccccc1)S(=O)(=O)c1cccc(C(=O)Nc2ncccc2C)c1`, the Potency was active: 11.7 µM. With `Cc1ccc(Nc2nc(N)nc(CN3CCN(c4ccccc4F)CC3)n2)cc1` the Potency was inconclusive [inhibitor, partial curve, poor fit]. With `OCCCNc1c2c(nc3cc(-c4ccc(Cl)cc4)nn13)CCC2` the Potency was inconclusive [inhibitor, single point]. For `CC(=O)N1c2ccc(S(=O)(=O)N3CCC(C(=O)NC4CCCC(C)C4C)CC3)cc2CC1C` (configuration not stated), the Potency was inconclusive [inhibitor, single point]. With `COCCNC(=O)CN1CCCCCC1` the Potency was “inactive”. With `CC(C)NC(=O)c1ccc(CN2CCC(Cc3ccccc3)CC2)cc1` the Potency was inconclusive [inhibitor, single point]. With `CCN(CC)c1ccc(NC(=O)C(C)C)cc1` the Potency was “inactive”. For `CC(=O)c1ccc(S(=O)(=O)Nc2cccc(-c3ccc(N4CCOCC4)nn3)c2)cc1`, the Potency was inconclusive [inhibitor, single point]. In the case of `O=C(Nc1ccc(S(=O)(=O)N2CCOCC2)cc1)c1cc(-c2ccccc2O)n[nH]1`, the Potency is reported as active: 10.4 µM. For `COc1ccc(N2C(=O)CN(Cc3cc(OC)c(OC)c(OC)c3)C2=S)cc1`, the Potency was inconclusive [inhibitor, full curve, poor fit]. With `Cc1cc(-c2nn(-c3ccccc3)cc2/C=C2\SC(N)=NC2=O)ccc1OC(C)C` the Potency was “inactive”. With `CCOC(=O)N1CCN(C(=O)c2noc(C(C)C)c2[N+](=O)[O-])CC1` the Potency was inconclusive [inhibitor, single point]. With `CCCCOc1ccc(C(=O)Oc2cccnc2)cc1` the Potency was “inactive”. In the case of `CCn1c(/C=C/c2cc(Br)ccc2O)nc2ccccc2c1=O`, the Potency is reported as active: 0.928 µM. For `NC(=S)N/N=C/c1ccc(C23CC4CC(CC(C4)C2)C3)cc1`, the Potency was active: 2.62 µM. In the case of `CC(C)(C)n1nnnc1C(c1cccs1)N(Cc1cccnc1)Cc1ccccc1Cl` (configuration not stated), the Potency is reported as active: 2.94 µM. For `CCCCCCCCCCCCCCCC[N+](C)(C)CCN(Cc1ccc(OC)cc1)c1ncccn1`, the Potency was active: 3.7 µM. For `Cc1ccccc1NC(=O)NC1(C(=O)N2CCC(O)CC2)CCCCC1`, the Potency was “inactive”. With `CCC1=C(OC(=O)N(CC)CC)N2C(=O)OC(=NCc3ccccc3)[C@]2(C)[C@H]2C1=CC[C@H]1C(=O)NC(=O)[C@H]12` the Potency was inconclusive [inhibitor, single point]. For `S=C(N/N=C/c1cccc2ccccc12)Nc1cccc(Cl)c1`, the Potency was inconclusive [inhibitor, partial curve, poor fit]. In the case of `COc1ccc2c(CC(=O)NC(Cc3ccc(Cl)cc3)C(=O)O)cc(=O)oc2c1C` (configuration not stated), the Potency is reported as inconclusive [inhibitor, single point]. For `Cc1ccccc1NC(=O)c1ccc(CN2CCC(Cc3ccccc3)CC2)cc1`, the Potency was inconclusive [inhibitor, partial curve, poor fit]. With `CC(C)CC(=O)Nc1ccccc1N1CCN(c2ccc(F)cc2)CC1` the Potency was inconclusive [inhibitor, single point]. With `O=C(Cn1cccn1)c1ccccc1` the Potency was inconclusive [inhibitor, single point]. In the case of `Cc1cccc(CN2CCCC(C(=O)c3cccc(OC(C)C)c3)C2)n1` (configuration not stated), the Potency is reported as inconclusive [inhibitor, full curve]. In the case of `COC(=O)c1sc(NC(=O)C2CCCO2)c(C(=O)OC)c1C` (configuration not stated), the Potency is reported as inconclusive [inhibitor, single point]. In the case of `O=C(NCCCN1CCN(c2ccccc2F)CC1)Nc1ccc(F)cc1`, the Potency is reported as inconclusive [inhibitor, single point]. With `Cn1cnnc1SCc1ccc(C(=O)N=Nc2c(O)n(Cc3ccc(Cl)cc3)c3ccccc23)cc1` the Potency was active: 2.33 µM. In the case of `CCOc1ccccc1C1CC(=O)Nc2cc(OC)c(OC)c(OC)c21` (configuration not stated), the Potency is reported as inconclusive [inhibitor, partial curve, poor fit]. With `CC(C)(C)c1nc(N2CCN(C(=O)c3ccco3)CC2)c2nnn(Cc3ccccc3)c2n1` the Potency was inconclusive [inhibitor, partial curve]. For `Cc1ccc(C)c(OCc2ccc(C(=O)Nc3ccc([N+](=O)[O-])cn3)o2)c1`, the Potency was inconclusive [inhibitor, single point]. In the case of `Cn1nc(C(=O)NCCc2ccc(S(N)(=O)=O)cc2)c2c1-c1ccccc1S(=O)(=O)C2`, the Potency is reported as inconclusive [inhibitor, partial curve]. In the case of `NC(=O)c1cc2cc(Cl)ccc2o/c1=N/NC(=O)c1cccs1`, the Potency is reported as “inactive”.
